Experimental data from ChEMBL document CHEMBL1157539, “Thousands of chemical starting points for antimalarial lead identification” (Nature, 2010).
Whole data set: some 13,000 compounds, median “IFI” near 4, cut for the highest 2% near 17. Some of the results follow.

Assay: GSK_TCMDC: Inhibition Frequency Index (IFI). The number of non-kinase HTS assays where a compound showed > 50 % inhibition, expressed as a percentage of the number of such assays in which the compound was tested (-0 is zero)
Assay type: functional

SMILES | IFI [%]
COc1ccc2ncc(C#N)c(CCN3CCC(NCc4ccc5c(c4)NC(=O)CO5)CC3)c2c1 | 3.73
Nc1ncc(-c2cn[nH]c2)cc1-c1nc2cc(Cl)cnc2[nH]1 | -0
CCOC(=O)CC[C@@H](NC(=O)c1ccc(NCc2ccc3ccc4nc(C)[nH]c(=O)c4c3c2)cc1F)C(=O)N[C@@H](Cc1c[nH]c2ccccc12)C(=O)OCC | 5.71
CCN1CCN(CCCCNc2c3ccccc3nc3ccccc23)CC1 | 4.29
Oc1ccc(CCNc2nc(NCc3ccccc3-c3ccc(C(F)(F)F)cc3)nc(NC3CCNCC3)n2)cc1 | 10.4
Fc1cccc(COc2ccc(Nc3ncnc4sc(C#CCNC5CCCC5)cc34)cc2Cl)c1 | 4.38
Cc1ccccc1C1CCN(C2CCC(NC(=O)/C=C/c3ccc4c(c3)OC(F)(F)O4)CC2)CC1 (configuration not stated) | 17.2
O=C(NCc1ccccn1)C(c1cc2ccccc2o1)N1CCN(C(c2ccccc2)c2ccccc2)CC1 (configuration not stated) | 0.69
O=S(=O)(NCCN1CCCC1)c1ccc(-c2ccc(CNCc3ccc(F)cc3)cc2)cc1F | 7.48
CC1(C)NC(N)=NC(=N)N1OCCOc1ccc(Cc2ccccc2)cc1 | 4.41
CC(C)C[C@H](NC(=O)c1ccc(OCCN2CCOCC2)cc1)C(=O)N[C@H](/C=N/N1CC(=O)NC1=O)CCc1ccccc1 | 1.83
COCCCNc1sc(S(=O)(=O)c2ccccc2)nc1S(=O)(=O)c1ccc(C)cc1 | 1.41
CCOC(=O)NC1=NC(C)(C)N(OCc2ccc(Cl)c(Cl)c2)C(NC(=O)OCC)=N1 | -0
O=C(Nc1ccc2c(ccn2C2CCCN(Cc3cc(F)cc(F)c3F)CC2)c1)c1ccco1 (configuration not stated) | 6.25
CC(=O)N[C@H](C(=O)Nc1ccc(-c2ccc(-c3nc4cc(C(F)(F)F)ccc4[nH]3)s2)cc1)C(C)C | 7.02
COc1cccc(OC2CCN(C(=O)c3ccc(-c4ccc(N5CCCC5=O)cc4C)cc3)CC2)c1 | 10.7
CC(C)c1ccc(-c2noc(SCC(=O)N3CCCCC3C)n2)cc1 (configuration not stated) | 4.88
FC(F)(F)c1ccc2[nH]c(-c3ccc(-c4cccc(CNCCN5CCNCC5)c4)s3)nc2c1 | 8.82
CC(C)N(Cc1ccc(-c2ccc(C(F)(F)F)cc2)cc1)C(=O)Cn1c(CCc2cccc(F)c2F)cc(=O)c2ccc(CCCN3CCCCC3)cc21 | 12.7
CCCCCC(C)(C)NC[C@@H](O)[C@H](Cc1ccccc1)NC(=O)c1cc(NCC)cc(N2CCCC2=O)c1 | 0.75
Cc1ccc(NC(=O)c2ccc3ncccc3c2)cc1OC1CCN(Cc2ccsc2)C1 (configuration not stated) | 3.28
CC1(C)NC(N)=NC(=N)N1OCc1ccc2ccccc2c1CON1C(=N)N=C(N)NC1(C)C | 0.7
CC(C)(C)c1ccc(CNC(=O)COc2ccc(-c3nnc(-c4cccc([N+](=O)[O-])c4)o3)cc2[N+](=O)[O-])cc1 | 1.47
O=C(/C=C/c1ccc(Cl)c(Cl)c1)NCCCCCN1CCC(NC(=O)Nc2cc(F)ccc2F)CC1 | 9.27
CCNc1cc(C(=O)N[C@@H](Cc2ccccc2)[C@H](O)CNC2(CC)CC2)cc(N2CCCCS2(=O)=O)c1 | 2.92
CS(=O)(=O)NCCCNCc1ccc(-c2ccc(-c3nc4cc(F)ccc4[nH]3)cc2)cc1 | 5.94

SMILES | IFI [%]
Cc1cc(NC(=O)Nc2ccc3ccn(C)c3c2)c2ccccc2n1 | 4.38
COc1ccc2nccc([C@@H](O)CN3CCC(NCc4ccc5c(c4)NC(=O)CS5)CC3)c2c1 | 1.45
CN1CCN(CCCN(Cc2cccc(-c3ccc(CNCCc4ccccc4)cc3)c2)C(=O)c2cccs2)CC1 | 11.3
COc1ccc(-c2ccc(NC(=O)c3cccc(F)c3)cc2)cc1CNC(C)C | 3.96
Cc1cc(N[C@@H](CC(C)C)C(=O)NCc2cccc(F)c2)nc(NCCc2ccc(F)cc2)n1 | 4.65
O=C(c1ccccc1)N1CCC(CN2CCOC(c3ccccc3)(c3ccccc3)C2)CC1 | 2.33
Fc1ccc(Nc2ccnc3cc(-c4ccc(CNCCN5CCOCC5)o4)ccc23)c(Cl)c1 | 7.86
CC(=O)Nc1ccc(C(=O)Nc2ccc(-c3cccc(-c4nc5cc(C(F)(F)F)ccc5[nH]4)c3)cc2)cn1 | 4.67
O=C(/C=C/c1ccc(Cl)c(Cl)c1)NCCCCCN1CCC(CCNC(=O)c2snnc2-c2ccccc2)CC1 | 6.29
Cc1cccc2nc(-c3cccc(-c4ccc(NC(=O)NC(C)C)cc4)c3)[nH]c12 | 4.08
CS(=O)(=O)N(c1ccc(F)cc1)c1cc(C(=O)N[C@@H](Cc2ccccc2)[C@H](O)CNCc2cccc(C(F)(F)F)c2)cc(N2CCCC2=O)c1 | 3.68
CCCCCCNC(=O)C1Cc2c([nH]c3ccc(F)cc23)C2(CCN(Cc3ccccc3)CC2)N1 (configuration not stated) | 5.8
FC(F)(F)c1ccc2[nH]c(-c3ccc(-c4cccc(CN5CCC(CCN6CCCCC6)CC5)c4)cc3)nc2c1 | 11.1
Cc1ccc2nc(Cl)c3cc(C(=O)NCCCN4CCCC4)sc3c2c1 | 6.12
Cc1cc(C(=O)CN2C(=O)NC3(CCCc4ccccc43)C2=O)c(C)n1Cc1ccc(F)cc1 (configuration not stated) | 5.45
Cc1cc(C(=O)NC2CCN(Cc3ccccc3)CC2)ccc1-c1nc2cc(Cl)c(Cl)cc2[nH]1 | 0.74
COc1cc2nc(N3CCC(CNC(=O)c4ccc(-c5ccc(C(=O)N(C)C)cc5C)cc4)CC3)nc(N3CCN(C)CC3)c2cc1OC | 3.57
O=S(=O)(NCCN1CCCC1)c1ccc(-c2ccc(CNCc3ccsc3)cc2)cc1 | 8.26
CCN(CC)CCN(Cc1ccc(-c2ccc(Cl)cc2)cc1)C(=O)Cn1cc(CN(C)C)c(=O)nc1SCc1ccc(F)cc1 | 12.6
CN(C)CC(O)C(c1ccccc1)c1ccc(Cl)cc1 (configuration not stated) | 0.7
CC(C)n1ncc2c(C(=O)N3CCCC4CCCCC43)cc(C3CC3)nc21 (configuration not stated) | 7.02
N#Cc1ccc(N/C(=N\c2ccc(-c3ccccc3)cc2)NC2CCCc3ccccc32)c(O)c1 (configuration not stated) | 1.47
c1cc2[nH]c(CCCc3nc4cc(C5=N[C@H]6CCCC[C@H]6N5)ccc4[nH]3)nc2cc1C1=N[C@@H]2CCCC[C@@H]2N1 | -0
CCc1cn(CCOC)c2ccc(C(=O)N[C@@H](Cc3ccccc3)[C@H](O)CNC(C)(C)CCCC(C)C)cc12 | 5.07
CC(CCNc1c2ccccc2nc2ccccc12)N1CCN(C)CC1 (configuration not stated) | 2.22
CCN(CCCN1CCCCC1)c1cc(C)nc(Nc2cc(Cl)cc(Cl)c2)n1 | 6.33
